The list shows a part of the results. This is a noisy data set.

From the supplement of paper PMC11369174, “Proteome-scale characterisation of motif-based interactome rewiring by disease mutations” (Molecular Systems Biology, 2024) come the findings set out here.

One assay concerns the target EZR_FERM_1_P15311_2_295. As to the kind of experiment: mutation enrichment score (mutant vs wild-type peptide binding to bait); baits are purified protein domains named by gene / domain / UniProt id / residues; peptides come from disordered regions of human proteins; higher = mutation enhances binding relative to wild type. The following applies: number of wild-type / mutant comparisons summed (bounds the score): 5; paper call: no_effect; wild-type window: ….
As to MAFLVIPNSTRDDSGKYSLTPVNPAGEKAVFVNVRVLDTPG [L19607P L19607P], the mutation enrichment score is -0.94.
For FIDKVRFLEQQNQVLQTKWEPLQQVDTSTRTHNLEPYFESF [L214P L214P], the mutation enrichment score was 3.
Consider SVTQVSSVSTDSAGSSYSISSILGITSPSADTNKRKRDEGI [G183S G183S], for which the mutation enrichment score came to 1.
For APIVAHLWEYVMSIDSLQLGCAEDGHCKGDINPNIPYPTRL [Y498C Y498C], the mutation enrichment score was found to be 2.
Same read-out and setting: for LHRNSIQFTDGYEVKEDIGVDSYSVCKRCIHKATNMEFAVK [G431D G431D] the value was -3.7; for ESKVCNAVVTGLSSGQEYQFHVKAYNEKGKSDPRVLGVPVI [R25211H R25211H], 2; for VETAAGAQDGQRTSSGSDTDVYSFHSATEQEDLLSDIQQAI [I183V I183V], 0.
Same read-out and setting: for MDHEDFRACLISMGYDLGEAKFARIMTLVDPNGQGTVTFQS [E793K E793K] the value was -4; for MFNFETFGNSMICLFQITTSPGWDGLLAPILNSKPPDCDPN [A1724P A1724P], 3.
On the same count and under the same terms, the same measure for KKDLPLDTSDSSSDTDSFYGVVERPVDISLSPYPTDNEDYE [A155V A155V]: 2.

The next assay deals with T1, MSN_FERM_1_P26038_1_322.
T1 chain: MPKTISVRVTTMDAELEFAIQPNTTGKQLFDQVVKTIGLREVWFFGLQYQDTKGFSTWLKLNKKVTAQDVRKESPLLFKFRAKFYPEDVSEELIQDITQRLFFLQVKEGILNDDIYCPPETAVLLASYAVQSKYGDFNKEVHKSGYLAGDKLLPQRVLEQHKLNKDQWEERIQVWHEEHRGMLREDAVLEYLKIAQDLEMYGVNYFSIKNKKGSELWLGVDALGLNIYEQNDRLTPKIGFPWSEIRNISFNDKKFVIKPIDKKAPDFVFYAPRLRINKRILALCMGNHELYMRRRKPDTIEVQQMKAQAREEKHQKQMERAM
The description is as above. The following applies: number of wild-type / mutant comparisons summed (bounds the score): 6; paper call: no_effect; wild-type window: ….
As to MAFLVIPNSTRDDSGKYSLTPVNPAGEKAVFVNVRVLDTPG [L19607P L19607P], the mutation enrichment score amounted to 0.73.
Still for that read-out and setting: the same measure for FIDKVRFLEQQNQVLQTKWEPLQQVDTSTRTHNLEPYFESF [L214P L214P]: 2.
The same measure, in the same setting: the same measure for SVTQVSSVSTDSAGSSYSISSILGITSPSADTNKRKRDEGI [G183S G183S]: 1.1; for APIVAHLWEYVMSIDSLQLGCAEDGHCKGDINPNIPYPTRL [Y498C Y498C]: 1.
Still for that read-out and setting: the same measure for LHRNSIQFTDGYEVKEDIGVDSYSVCKRCIHKATNMEFAVK [G431D G431D]: -5.9; for ESKVCNAVVTGLSSGQEYQFHVKAYNEKGKSDPRVLGVPVI [R25211H R25211H]: 4.
Consider PAPEPPTQHSYTYNVSNLDVGQLSAPPPEEPSPPPSPLAPS [R4904G R4904G], for which the mutation enrichment score was -0.19.
On the same count and under the same terms, the same measure for LGKDEKEQSEKAAMYDIISSTSKDSTKLTLRLSRVRSSDMD [P351T P351T]: -2.9.
MDHEDFRACLISMGYDLGEAKFARIMTLVDPNGQGTVTFQS [E793K E793K]: the mutation enrichment score was -2.9.

For another assay, the target named is T2, RDX_FERM_1_P35241_5_295.
T2 chain: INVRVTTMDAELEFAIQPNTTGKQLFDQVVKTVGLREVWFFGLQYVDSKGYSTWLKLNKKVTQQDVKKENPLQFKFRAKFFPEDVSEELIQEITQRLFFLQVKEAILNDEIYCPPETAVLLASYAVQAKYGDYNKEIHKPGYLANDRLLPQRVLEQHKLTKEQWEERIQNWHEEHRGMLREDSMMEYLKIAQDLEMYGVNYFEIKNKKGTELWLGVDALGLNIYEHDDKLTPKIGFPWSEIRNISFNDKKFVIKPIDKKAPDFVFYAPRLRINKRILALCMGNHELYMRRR
The assay is described as above. To be noted: number of wild-type / mutant comparisons summed (bounds the score): 6; paper call: no_effect; wild-type window: ….
MAFLVIPNSTRDDSGKYSLTPVNPAGEKAVFVNVRVLDTPG [L19607P L19607P]: the mutation enrichment score stood at 1.9.
FIDKVRFLEQQNQVLQTKWEPLQQVDTSTRTHNLEPYFESF [L214P L214P]: the mutation enrichment score is 4.9.
Same read-out and setting: the same measure for SVTQVSSVSTDSAGSSYSISSILGITSPSADTNKRKRDEGI [G183S G183S]: 2.5.

The target of another assay is MAP1LC3A_ATG8__Q9H492_2_121. Described as above. To be noted: number of wild-type / mutant comparisons summed (bounds the score): 12; paper call: diminished; wild-type window: ….
As to FIDKVRFLEQQNQVLQTKWEPLQQVDTSTRTHNLEPYFESF [L214P L214P], the mutation enrichment score is -6.

The target in a further assay is USP7_MATH-TRAF__Q93009_53_206. The description is as above. To be noted: number of wild-type / mutant comparisons summed (bounds the score): 10; paper call: no_effect; wild-type window: ….
USP7_MATH-TRAF__Q93009_53_206, sequence (chain, as listed by the source): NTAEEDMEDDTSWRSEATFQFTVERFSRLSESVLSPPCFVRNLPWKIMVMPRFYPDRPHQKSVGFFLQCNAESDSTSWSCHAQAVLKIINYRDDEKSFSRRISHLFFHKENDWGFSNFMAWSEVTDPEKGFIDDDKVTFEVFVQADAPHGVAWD
With SVTQVSSVSTDSAGSSYSISSILGITSPSADTNKRKRDEGI [G183S G183S], the mutation enrichment score was -2.9.

In another assay the target is EZR_FERM_1_P15311_2_295. The description is as above. The following applies: number of wild-type / mutant comparisons summed (bounds the score): 10; paper call: no_effect; wild-type window: ….
EZR_FERM_1_P15311_2_295, sequence (chain, as listed by the source): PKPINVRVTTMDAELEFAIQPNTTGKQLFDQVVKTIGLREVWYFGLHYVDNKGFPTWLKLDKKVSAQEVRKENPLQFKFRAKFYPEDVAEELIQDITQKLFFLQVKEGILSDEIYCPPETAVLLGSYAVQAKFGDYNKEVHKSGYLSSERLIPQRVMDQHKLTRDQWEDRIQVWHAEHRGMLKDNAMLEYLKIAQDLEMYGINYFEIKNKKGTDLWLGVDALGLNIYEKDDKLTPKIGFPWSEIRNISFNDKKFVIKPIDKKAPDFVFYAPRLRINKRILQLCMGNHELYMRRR
LLSVKQEKEIQMKMIVTRGEYVLQNTSPEGIPTIQQQLQSV [S3346Y S3346Y]: the mutation enrichment score came out at 4.
Take PAPEPPTQHSYTYNVSNLDVGQLSAPPPEEPSPPPSPLAPS [R4904G R4904G]: the mutation enrichment score was 2.
With LGKDEKEQSEKAAMYDIISSTSKDSTKLTLRLSRVRSSDMD [P351T P351T], the mutation enrichment score worked out at 3.
Regarding MNDFFHSFLIVFRVLCGEWIKTMWDCMEVAGQAMCLTVFMM [E954K E954K], the mutation enrichment score came out at 0.
Same read-out and setting: for IIHEGLDYYALHIRDTLPEDMGYYRVTATNTAGSTSCQAHL [T32790M T32790M] the value was -2.9; for EMQKVDQHEWTKCNTTPTKIQEYTLTHLPQGAEYRFRVLAC [R31017Q R31017Q], 2.

A further assay concerns the target T1, MSN_FERM_1_P26038_1_322. The description is as above. The following applies: number of wild-type / mutant comparisons summed (bounds the score): 12; paper call: enhanced; wild-type window: ….
For LLSVKQEKEIQMKMIVTRGEYVLQNTSPEGIPTIQQQLQSV [S3346Y S3346Y], the mutation enrichment score was determined as 7.

The target in a further assay is T2, RDX_FERM_1_P35241_5_295. The assay is described as above. To be noted: number of wild-type / mutant comparisons summed (bounds the score): 12; paper call: enhanced; wild-type window: ….
In the case of LLSVKQEKEIQMKMIVTRGEYVLQNTSPEGIPTIQQQLQSV [S3346Y S3346Y], the mutation enrichment score stood at 7.

Staying with this assay, now noted: number of wild-type / mutant comparisons summed (bounds the score): 12; paper call: no_effect; wild-type window: ….
Consider PAPEPPTQHSYTYNVSNLDVGQLSAPPPEEPSPPPSPLAPS [R4904G R4904G], for which the mutation enrichment score was -0.44.
The same measure, in the same setting: the same measure for LGKDEKEQSEKAAMYDIISSTSKDSTKLTLRLSRVRSSDMD [P351T P351T]: -0.27; for IIHEGLDYYALHIRDTLPEDMGYYRVTATNTAGSTSCQAHL [T32790M T32790M]: -1.8.
Still for that read-out and setting: for EMQKVDQHEWTKCNTTPTKIQEYTLTHLPQGAEYRFRVLAC [R31017Q R31017Q] the value was -2.

For the next assay, the target named is FKBP1A_full-length__P62942_1_108, P62942. The assay is described as above. To be noted: number of wild-type / mutant comparisons summed (bounds the score): 6; paper call: diminished; wild-type window: ….
FKBP1A_full-length__P62942_1_108, P62942, sequence (P62942 whole entry): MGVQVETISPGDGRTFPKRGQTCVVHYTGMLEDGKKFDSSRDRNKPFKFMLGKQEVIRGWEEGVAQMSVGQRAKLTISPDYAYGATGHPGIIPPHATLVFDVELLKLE
As to NLIMASLPGVMTIGPGEPASPGPTFTNTGASTLVIGLASTQ [L422P L422P], the mutation enrichment score is -6.

The target in another assay is T3, G3BP2_NTF2_1_Q9UN86_1_139.
T3 chain: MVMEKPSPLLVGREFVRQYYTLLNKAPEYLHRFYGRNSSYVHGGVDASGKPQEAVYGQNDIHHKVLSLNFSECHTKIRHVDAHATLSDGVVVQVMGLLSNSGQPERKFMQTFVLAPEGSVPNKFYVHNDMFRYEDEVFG
The description is as above. The following applies: number of wild-type / mutant comparisons summed (bounds the score): 6; paper call: diminished; wild-type window: ….
As to MDHEDFRACLISMGYDLGEAKFARIMTLVDPNGQGTVTFQS [E793K E793K], the mutation enrichment score is -6.

A further assay has as its target USP7_MATH-TRAF__Q93009_53_206. The description is as above. To be noted: number of wild-type / mutant comparisons summed (bounds the score): 5; paper call: no_effect; wild-type window: ….
On to IIHEGLDYYALHIRDTLPEDMGYYRVTATNTAGSTSCQAHL [T32790M T32790M], for which the mutation enrichment score was determined as 1.7.

The next assay addresses T1, MSN_FERM_1_P26038_1_322. Described as above. To be noted: number of wild-type / mutant comparisons summed (bounds the score): 6; paper call: enhanced; wild-type window: ….
As for MFNFETFGNSMICLFQITTSPGWDGLLAPILNSKPPDCDPN [A1724P A1724P], the mutation enrichment score amounted to 6.
For KKDLPLDTSDSSSDTDSFYGVVERPVDISLSPYPTDNEDYE [A155V A155V], the mutation enrichment score was determined as 6.

In the next assay the target is WDR5_WD_1234567_P61964_21_334. The description is as above. The following applies: number of wild-type / mutant comparisons summed (bounds the score): 6; paper call: no_effect; wild-type window: ….
Regarding MFNFETFGNSMICLFQITTSPGWDGLLAPILNSKPPDCDPN [A1724P A1724P], the mutation enrichment score came out at 1.

The target in another assay is T1, MSN_FERM_1_P26038_1_322. The description is as above. The following applies: number of wild-type / mutant comparisons summed (bounds the score): 12; paper call: no_effect; wild-type window: ….
With EMQKVDQHEWTKCNTTPTKIQEYTLTHLPQGAEYRFRVLAC [R31017Q R31017Q], the mutation enrichment score was -5.
